# Measured values: PubChem BioAssay (NCATS)
# Inconclusive means that the source gave no clear call. Such entries were picked first, then a sample of the others. No potency is given beside an inconclusive call; the fits are too rough. The source made the active and inactive calls. Calls follow the shape of the dose curve; as a rule, active = well fitted curve in the direction sought with a large enough effect; inconclusive = small, poorly fitted or top-dose-only effect, or another doubt; inactive = no such curve, though single readings can be large; an effect the other way counts as inactive or inconclusive.
# How the values were obtained:
# [1] = BET inhibitor-based combinations targeting novel dependencies in MECOM-rearranged (r) AML: OCI-AML3 cell line (AID 2202232); conditions: CellTiter-Glo luminescence, 48 h; Potency: OCI-AML3 viability; viability (% of control): at 46 µM (top of the series); also: nearly all actives have a fitted effect of over 35% in size
# Summary of the method: (§1)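 Readout: CellTiter-Glo luminescence. Exposure: 48 h, 11 concentrations, 500 cells/well. Metric: AUC and within-line Z-AUC after DMSO/empty-well normalization.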
# [2] = BET inhibitor-based combinations targeting novel dependencies in MECOM-rearranged (r) AML: HNT-34 cell line (AID 2202234); also: nearly all actives have a fitted effect of over 35% in size
# Summary of the method: (§2)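 Seeding density was 500 cells/well, and drug exposure lasted 48 hr under standard culture conditions. Read-out used CellTiter-Glo reagent with a 15 min room-temperature incubation before luminescence measurement; AUC and Z-AUC summarize the normalized responses.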
# [3] = BET inhibitor-based combinations targeting novel dependencies in MECOM-rearranged (r) AML: UCSD-AML1 cell line (AID 2202235); conditions: UCSD-AML1 AML cells viability, CellTiter-Glo, 48 h; viability (% of control): at 46 µM (top of the series); also: nearly all actives have a fitted effect of over 40% in size
# Summary of the method: as §2
# [4] = BET inhibitor-based combinations targeting novel dependencies in MECOM-rearranged (r) AML: AML-191 cell line (AID 2202236; also: nearly all actives have a fitted effect of over 35% in size)
# Summary of the method: as §1
# [5] = BET inhibitor-based combinations targeting novel dependencies in MECOM-rearranged (r) AML: AML-194 cell line (AID 2202237; also: nearly all actives have a fitted effect of over 40% in size)
# Summary of the method: as §1
# Potency is read from the fitted curve at half-maximal effect; tags tell the direction and shape of the fitted curve.
SMILES,Potency [1],Potency [2],Potency [3],Potency [4],Potency [5]
CC1(N)CCN(c2cccnc2NC(=O)c2nc(-c3ncccc3C(F)(F)F)cnc2N)CC1,"inconclusive [inhibitor, partial curve, poor fit]",active: 18.6 µM,"inconclusive [inhibitor, partial curve, poor fit]","inconclusive [inhibitor, partial curve]","inconclusive [inhibitor, full curve]"
Nc1nc(F)nc2c1ncn2[C@@H]1O[C@H](COP(=O)(O)O)[C@@H](O)[C@@H]1O,active: 20.9 µM,"inconclusive [inhibitor, partial curve]",active: 1.18 µM,,active: 4.17 µM
C[C@@H]1COCCN1c1cc(=O)n2c(n1)N(Cc1cncc(Cl)c1)[C@H](C(F)(F)F)CC2,inactive,inactive,"inconclusive [inhibitor, single point]","inconclusive [inhibitor, partial curve, poor fit]",inactive
CN(C)N=Nc1nc[nH]c1C(N)=O,inactive,inactive,,active: 14.8 µM,
CCNC(=O)CCC/C=C\C[C@@H]1[C@@H](/C=C/C(O)CCc2ccccc2)[C@@H](O)C[C@@H]1O (stereo partly drawn),"inconclusive [inhibitor, full curve, poor fit]",inactive,,inactive,
CC(C)N(C[C@H]1O[C@@H](n2cnc3c(N)ncnc32)[C@H](O)[C@@H]1O)C1CC(CCc2nc3ccc(C(C)(C)C)cc3[nH]2)C1 (stereo partly drawn),inactive,inactive,,inactive,
